Laboratory results as given in publication PMC8378479.
No constants are given. Whether binding was seen depends on the method and setting. Some entries that bind do so weakly or less than the wild type.

Sequences of proteins named here, by UniProt entry; tags and fusion partners are left off. Residues count along the entry.
UniProt P28905, residues 2-147: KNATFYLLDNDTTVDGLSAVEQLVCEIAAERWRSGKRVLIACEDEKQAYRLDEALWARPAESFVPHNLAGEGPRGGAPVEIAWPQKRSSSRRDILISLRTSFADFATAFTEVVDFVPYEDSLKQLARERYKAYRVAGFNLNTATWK

T1: YoaAΔ619–636 C-terminal truncation (Escherichia coli) (UniProt P76257)
T1 sequence: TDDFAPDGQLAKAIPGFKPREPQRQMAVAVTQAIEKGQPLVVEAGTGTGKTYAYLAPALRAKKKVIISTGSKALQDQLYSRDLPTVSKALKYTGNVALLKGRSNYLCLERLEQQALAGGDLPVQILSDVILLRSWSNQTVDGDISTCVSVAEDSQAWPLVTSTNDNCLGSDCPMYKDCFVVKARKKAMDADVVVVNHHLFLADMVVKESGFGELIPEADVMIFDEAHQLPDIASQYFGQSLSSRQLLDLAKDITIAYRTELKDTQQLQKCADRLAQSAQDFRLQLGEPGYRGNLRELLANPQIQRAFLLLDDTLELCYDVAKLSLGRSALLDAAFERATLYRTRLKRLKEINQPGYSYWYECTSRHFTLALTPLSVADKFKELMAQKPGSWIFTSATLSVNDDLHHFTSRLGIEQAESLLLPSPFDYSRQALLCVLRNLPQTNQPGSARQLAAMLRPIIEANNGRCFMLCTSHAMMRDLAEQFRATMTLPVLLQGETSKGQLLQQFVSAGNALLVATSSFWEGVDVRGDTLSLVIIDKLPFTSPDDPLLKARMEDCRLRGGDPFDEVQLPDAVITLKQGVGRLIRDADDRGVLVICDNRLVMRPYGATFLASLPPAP

T2: YoaA R619A (Escherichia coli) (UniProt P76257)
T2 sequence: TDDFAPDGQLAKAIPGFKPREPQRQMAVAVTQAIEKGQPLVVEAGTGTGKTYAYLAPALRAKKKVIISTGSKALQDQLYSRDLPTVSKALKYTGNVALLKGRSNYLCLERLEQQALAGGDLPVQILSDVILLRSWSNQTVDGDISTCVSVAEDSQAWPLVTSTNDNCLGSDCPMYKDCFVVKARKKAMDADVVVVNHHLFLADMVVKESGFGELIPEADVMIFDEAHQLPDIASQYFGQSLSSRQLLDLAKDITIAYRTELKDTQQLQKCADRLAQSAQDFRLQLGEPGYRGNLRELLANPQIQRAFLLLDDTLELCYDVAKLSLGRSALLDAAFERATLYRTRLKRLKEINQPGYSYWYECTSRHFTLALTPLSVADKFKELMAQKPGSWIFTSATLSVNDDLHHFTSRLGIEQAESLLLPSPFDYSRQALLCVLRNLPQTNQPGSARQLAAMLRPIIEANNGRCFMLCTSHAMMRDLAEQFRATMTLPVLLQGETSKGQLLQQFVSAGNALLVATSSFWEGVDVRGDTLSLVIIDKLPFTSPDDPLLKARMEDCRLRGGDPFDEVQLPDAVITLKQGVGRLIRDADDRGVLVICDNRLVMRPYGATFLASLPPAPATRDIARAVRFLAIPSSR

T3: YoaA (wild type), Escherichia coli XP-D/DinG family DNA helicase (Escherichia coli) (UniProt P76257)
T3 sequence: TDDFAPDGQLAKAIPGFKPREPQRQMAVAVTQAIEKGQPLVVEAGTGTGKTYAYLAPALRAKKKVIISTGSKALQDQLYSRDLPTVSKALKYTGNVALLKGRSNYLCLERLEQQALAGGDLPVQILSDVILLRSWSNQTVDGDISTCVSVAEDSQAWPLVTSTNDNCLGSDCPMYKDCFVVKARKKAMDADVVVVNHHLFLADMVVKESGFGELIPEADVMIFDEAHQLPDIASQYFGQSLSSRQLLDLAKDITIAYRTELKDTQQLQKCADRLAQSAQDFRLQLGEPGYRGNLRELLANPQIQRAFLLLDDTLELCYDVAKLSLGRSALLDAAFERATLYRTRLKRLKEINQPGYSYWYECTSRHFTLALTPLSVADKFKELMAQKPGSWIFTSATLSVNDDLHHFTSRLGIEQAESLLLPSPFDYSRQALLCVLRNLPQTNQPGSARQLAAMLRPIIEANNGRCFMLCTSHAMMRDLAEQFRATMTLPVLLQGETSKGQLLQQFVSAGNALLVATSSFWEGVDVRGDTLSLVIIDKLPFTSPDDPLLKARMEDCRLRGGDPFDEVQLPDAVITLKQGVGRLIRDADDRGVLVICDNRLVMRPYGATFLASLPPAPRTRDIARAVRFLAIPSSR

T4: YoaA T620A (Escherichia coli) (UniProt P76257)
T4 sequence: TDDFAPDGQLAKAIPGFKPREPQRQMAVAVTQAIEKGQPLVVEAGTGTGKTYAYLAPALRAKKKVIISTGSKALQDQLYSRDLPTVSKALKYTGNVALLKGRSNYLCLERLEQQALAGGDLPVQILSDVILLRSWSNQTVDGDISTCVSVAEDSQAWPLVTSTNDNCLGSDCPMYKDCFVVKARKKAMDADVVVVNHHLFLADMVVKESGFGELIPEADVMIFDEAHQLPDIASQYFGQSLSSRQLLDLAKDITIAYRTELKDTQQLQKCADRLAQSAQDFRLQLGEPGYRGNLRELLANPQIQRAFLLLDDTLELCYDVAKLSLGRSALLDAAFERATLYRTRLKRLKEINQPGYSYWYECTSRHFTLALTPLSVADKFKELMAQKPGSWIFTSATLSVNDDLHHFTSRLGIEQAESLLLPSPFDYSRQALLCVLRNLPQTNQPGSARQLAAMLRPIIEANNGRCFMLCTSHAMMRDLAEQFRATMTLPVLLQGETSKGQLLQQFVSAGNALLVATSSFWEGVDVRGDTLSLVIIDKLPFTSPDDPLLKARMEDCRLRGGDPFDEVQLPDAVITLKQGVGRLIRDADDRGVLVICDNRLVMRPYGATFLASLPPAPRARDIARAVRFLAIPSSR


How the values were obtained:
Test in all cases: two-hybrid; Matchmaker Gold yeast two-hybrid, Gal4 AD and BD fusions in both orientations (HolC-BD with YoaA-AD; HolC-AD with YoaA-BD); growth on -His plates, 2 or 3 days at 30°C; three independent platings
[1] = target: T1, YoaAΔ619–636 C-terminal truncation (Escherichia coli)
[2] = target: T2, YoaA R619A (Escherichia coli)
[3] = target: T3, YoaA (wild type), Escherichia coli XP-D/DinG family DNA helicase (Escherichia coli)
[4] = target: T4, YoaA T620A (Escherichia coli)
[5] = target: HolC (χ subunit of DNA polymerase III holoenzyme), Escherichia coli (Escherichia coli) (UniProt P28905)

binding [5]	Molecule	also measured
–	HolC (χ subunit of DNA polymerase III holoenzyme), Escherichia coli (from UniProt P28905 2-147)	binding [1]: no binding; binding [2]: no binding; binding [3]: binds; binding [4]: no binding
binds	YoaA (wild type), Escherichia coli XP-D/DinG family DNA helicase (enzyme, UniProt P76257 2-636) TDDFAPDGQLAKAIPGFKPREPQRQMAVAVTQAIEKGQPLVVEAGTGTGKTYAYLAPALRAKKKVIISTGSKALQDQLYSRDLPTVSKALKYTGNVALLKGRSNYLCLERLEQQALAGGDLPVQILSDVILLRSWSNQTVDGDISTCVSVAEDSQAWPLVTSTNDNCLGSDCPMYKDCFVVKARKKAMDADVVVVNHHLFLADMVVKESGFGELIPEADVMIFDEAHQLPDIASQYFGQSLSSRQLLDLAKDITIAYRTELKDTQQLQKCADRLAQSAQDFRLQLGEPGYRGNLRELLANPQIQRAFLLLDDTLELCYDVAKLSLGRSALLDAAFERATLYRTRLKRLKEINQPGYSYWYECTSRHFTLALTPLSVADKFKELMAQKPGSWIFTSATLSVNDDLHHFTSRLGIEQAESLLLPSPFDYSRQALLCVLRNLPQTNQPGSARQLAAMLRPIIEANNGRCFMLCTSHAMMRDLAEQFRATMTLPVLLQGETSKGQLLQQFVSAGNALLVATSSFWEGVDVRGDTLSLVIIDKLPFTSPDDPLLKARMEDCRLRGGDPFDEVQLPDAVITLKQGVGRLIRDADDRGVLVICDNRLVMRPYGATFLASLPPAPRTRDIARAVRFLAIPSSR	–
no binding	YoaA R619A (enzyme, UniProt P76257 2-636) TDDFAPDGQLAKAIPGFKPREPQRQMAVAVTQAIEKGQPLVVEAGTGTGKTYAYLAPALRAKKKVIISTGSKALQDQLYSRDLPTVSKALKYTGNVALLKGRSNYLCLERLEQQALAGGDLPVQILSDVILLRSWSNQTVDGDISTCVSVAEDSQAWPLVTSTNDNCLGSDCPMYKDCFVVKARKKAMDADVVVVNHHLFLADMVVKESGFGELIPEADVMIFDEAHQLPDIASQYFGQSLSSRQLLDLAKDITIAYRTELKDTQQLQKCADRLAQSAQDFRLQLGEPGYRGNLRELLANPQIQRAFLLLDDTLELCYDVAKLSLGRSALLDAAFERATLYRTRLKRLKEINQPGYSYWYECTSRHFTLALTPLSVADKFKELMAQKPGSWIFTSATLSVNDDLHHFTSRLGIEQAESLLLPSPFDYSRQALLCVLRNLPQTNQPGSARQLAAMLRPIIEANNGRCFMLCTSHAMMRDLAEQFRATMTLPVLLQGETSKGQLLQQFVSAGNALLVATSSFWEGVDVRGDTLSLVIIDKLPFTSPDDPLLKARMEDCRLRGGDPFDEVQLPDAVITLKQGVGRLIRDADDRGVLVICDNRLVMRPYGATFLASLPPAPATRDIARAVRFLAIPSSR	–
no binding	YoaA T620A (enzyme, UniProt P76257 2-636) TDDFAPDGQLAKAIPGFKPREPQRQMAVAVTQAIEKGQPLVVEAGTGTGKTYAYLAPALRAKKKVIISTGSKALQDQLYSRDLPTVSKALKYTGNVALLKGRSNYLCLERLEQQALAGGDLPVQILSDVILLRSWSNQTVDGDISTCVSVAEDSQAWPLVTSTNDNCLGSDCPMYKDCFVVKARKKAMDADVVVVNHHLFLADMVVKESGFGELIPEADVMIFDEAHQLPDIASQYFGQSLSSRQLLDLAKDITIAYRTELKDTQQLQKCADRLAQSAQDFRLQLGEPGYRGNLRELLANPQIQRAFLLLDDTLELCYDVAKLSLGRSALLDAAFERATLYRTRLKRLKEINQPGYSYWYECTSRHFTLALTPLSVADKFKELMAQKPGSWIFTSATLSVNDDLHHFTSRLGIEQAESLLLPSPFDYSRQALLCVLRNLPQTNQPGSARQLAAMLRPIIEANNGRCFMLCTSHAMMRDLAEQFRATMTLPVLLQGETSKGQLLQQFVSAGNALLVATSSFWEGVDVRGDTLSLVIIDKLPFTSPDDPLLKARMEDCRLRGGDPFDEVQLPDAVITLKQGVGRLIRDADDRGVLVICDNRLVMRPYGATFLASLPPAPRARDIARAVRFLAIPSSR	–
no binding	YoaAΔ619–636 C-terminal truncation (domain or fragment, UniProt P76257 2-618) TDDFAPDGQLAKAIPGFKPREPQRQMAVAVTQAIEKGQPLVVEAGTGTGKTYAYLAPALRAKKKVIISTGSKALQDQLYSRDLPTVSKALKYTGNVALLKGRSNYLCLERLEQQALAGGDLPVQILSDVILLRSWSNQTVDGDISTCVSVAEDSQAWPLVTSTNDNCLGSDCPMYKDCFVVKARKKAMDADVVVVNHHLFLADMVVKESGFGELIPEADVMIFDEAHQLPDIASQYFGQSLSSRQLLDLAKDITIAYRTELKDTQQLQKCADRLAQSAQDFRLQLGEPGYRGNLRELLANPQIQRAFLLLDDTLELCYDVAKLSLGRSALLDAAFERATLYRTRLKRLKEINQPGYSYWYECTSRHFTLALTPLSVADKFKELMAQKPGSWIFTSATLSVNDDLHHFTSRLGIEQAESLLLPSPFDYSRQALLCVLRNLPQTNQPGSARQLAAMLRPIIEANNGRCFMLCTSHAMMRDLAEQFRATMTLPVLLQGETSKGQLLQQFVSAGNALLVATSSFWEGVDVRGDTLSLVIIDKLPFTSPDDPLLKARMEDCRLRGGDPFDEVQLPDAVITLKQGVGRLIRDADDRGVLVICDNRLVMRPYGATFLASLPPAP	–
